Measured values as given in the supplement of paper PMC9446081.
The campaign covered roughly 39,000 compounds. About 220 (0.56%) showed activity. The list shows a part of the results.

test system: Escherichia coli K-12 BW25113; assay: relative growth (OD600 normalised to plate interquartile mean) (fraction); higher = less growth inhibition, active = 0.2 or less; conditions: 50 µM; LB; incubation time: overnight (16-24 h)
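Note: static incubation at 37 °C against the wild-type strain, values averaged over two biological replicates.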

SMILES | relative growth
COc1ccccc1CNC(=O)C[C@H]1C[C@@H]2c3cc(NS(=O)(=O)c4ccc(F)cc4)ccc3O[C@@H]2[C@H](CO)O1 | inactive: 0.996
COC(=O)[C@H]1CCc2nc[nH]c2C1 | inactive: 1
CO[C@H]1CN(C)C(=O)c2cc(NS(C)(=O)=O)ccc2OC[C@@H](C)N(C(=O)C2CCCCC2)C[C@@H]1C | inactive: 0.99
COc1ccc(CNC(=O)C[C@@H]2C[C@@H]3c4cc(NS(=O)(=O)c5ccc(F)cc5)ccc4O[C@@H]3[C@@H](CO)O2)cc1 | inactive: 1.01
COc1ccccc1-c1ccc2c(c1)O[C@H](CN(C)CC1CCOCC1)[C@H](C)CN([C@H](C)CO)S2(=O)=O | inactive: 0.93
COc1ccc(S(=O)(=O)N(C)C[C@H]2Oc3ccc(NC(=O)Cn4cnnn4)cc3C(=O)N([C@H](C)CO)C[C@@H]2C)cc1 | inactive: 1.01
C[C@H](CO)N1C[C@H](C)[C@H](CN(C)S(C)(=O)=O)Oc2ccc(NC(=O)Nc3ccc(C(F)(F)F)cc3)cc2CC1=O | inactive: 0.974
CN[C@@H]1[C@H](O[C@H]2[C@H](O[C@@H]3[C@@H](O)[C@H](O)[C@@H](NC(=N)N)[C@H](O)[C@H]3NC(=N)N)O[C@@H](C)[C@]2(O)C=O)O[C@@H](CO)[C@H](O)[C@H]1O | inactive: 0.972
Cc1noc(C)c1S(=O)(=O)Nc1ccc2c(c1)C(=O)N([C@H](C)CO)C[C@H](C)[C@H](CN(C)S(C)(=O)=O)OCCCC[C@@H](C)O2 | inactive: 1.01
C[C@H]1CN([C@@H](C)CO)C(=O)CCCn2cc(nn2)CO[C@@H]1CN(C)S(=O)(=O)c1ccc(-n2cccn2)cc1 | inactive: 1
COc1ccc(NC(=O)Nc2ccc3c(c2)C(=O)N([C@@H](C)CO)C[C@@H](C)[C@@H](CN(C)C(=O)Nc2cccc4ccccc24)OCCCC[C@H](C)O3)cc1 | inactive: 1.01
C[C@H](CO)NS(=O)(=O)c1ccnn1C | inactive: 0.987
C[C@@H]1CCCCO[C@@H](CN(C)C(=O)C2CCCCC2)[C@@H](C)CN([C@H](C)CO)C(=O)c2cc(NC(=O)Nc3ccccc3)ccc2O1 | inactive: 0.95
O=C(C[C@H]1CC[C@@H]2NC[C@H](O)COC[C@H]2O1)NCCN1CCCC1 | inactive: 0.997
COc1ccc(S(=O)(=O)Nc2ccc3c(c2)C(=O)N([C@@H](C)CO)C[C@H](C)[C@@H](CN(C)Cc2ccc4c(c2)OCO4)OCCCC[C@H](C)O3)cc1 | inactive: 1.01
COC(=O)C[C@@H]1CC[C@H]2[C@@H](COC[C@H](O)CN2S(=O)(=O)c2ccccc2C)O1 | inactive: 0.876
C[C@@H]1CCCCO[C@@H](CN(C)CC2CCCCC2)[C@@H](C)CN([C@H](C)CO)C(=O)c2cc(NC(=O)Nc3ccc(C(F)(F)F)cc3)ccc2O1 | inactive: 0.969
Cn1nccc1NC(=O)COCC(=O)O | inactive: 1.04
C[C@@H]1CN([C@H](C)CO)C(=O)c2cccc(NC(=O)Nc3ccc(F)cc3)c2O[C@@H]1CN(C)Cc1ccc(C(=O)Nc2ccccc2N)cc1 | inactive: 0.995
COc1ccc(C2=N[C@@H](c3ccc(Cl)cc3)[C@@H](c3ccc(Cl)cc3)N2C(=O)N2CCNC(=O)C2)c(OC(C)C)c1 | inactive: 1.01
Cc1ccc(S(=O)(=O)Nc2ccc3c(c2)C(=O)N([C@@H](C)CO)C[C@H](C)[C@@H](CN(C)S(=O)(=O)c2ccc(Cl)cc2)OCCCC[C@@H](C)O3)cc1 | inactive: 1.04

SMILES | relative growth
OCC1=C[C@@H](O)[C@@H]2C=CO[C@@H](O[C@@H]3O[C@H](CO)[C@@H](O)[C@H](O)[C@H]3O)[C@H]12 | inactive: 0.993
NC(=O)NS(=O)(=O)c1ccc(N)cc1 | inactive: 1.06
C[C@H]1CN([C@@H](C)CO)S(=O)(=O)c2ccc(-c3cccnc3)cc2O[C@H]1CN(C)CC1CCOCC1 | inactive: 1
COc1ccc(C#Cc2cnc3c(c2)C(=O)N([C@H](C)CO)C[C@H](C)[C@H](CN(C)S(C)(=O)=O)O3)cc1OC | inactive: 0.907
CS(=O)(=O)CC(=O)N1C[C@H]2COC[C@@]2(COc2cccnc2)C1 | inactive: 0.997
Cc1ccc(S(=O)(=O)Nc2ccc3c(c2)C(=O)N([C@H](C)CO)C[C@@H](C)[C@@H](CN(C)S(=O)(=O)c2c(C)noc2C)O3)cc1 | inactive: 0.997
COc1ccc(CN(C)C[C@H]2OCCCC[C@@H](C)Oc3ccc(NS(=O)(=O)c4ccc(Cl)cc4)cc3C(=O)N([C@@H](C)CO)C[C@H]2C)cc1 | inactive: 0.836
COc1ccc(NC(=O)N(C)C[C@@H]2Oc3ncc(C#C[C@H](C)O)cc3C(=O)N([C@@H](C)CO)C[C@H]2C)cc1 | inactive: 0.992
O=C(C[C@H]1C=C[C@@H](NC(=O)C2CC2)[C@@H](CO)O1)NCCCN1CCOCC1 | inactive: 0.991
C[N+](C)(C)CCCCNC(=O)[C@H]1C[C@H]2C(=O)N3CCC[C@H]3C(=O)N2[C@H]1c1cccc(OCCO)c1 | inactive: 0.969
CNC(=O)[C@H]1C[C@@H]2CN(c3ncc(F)cn3)C[C@H]1O2 | inactive: 0.976
COc1ccc(NC(=O)Nc2ccc3c(c2)C(=O)N([C@@H](C)CO)C[C@H](C)[C@@H](CN(C)S(=O)(=O)c2cccs2)OCCCC[C@@H](C)O3)cc1 | inactive: 1.04
C[C@@H]1CN([C@@H](C)CO)C(=O)c2cc(C#Cc3ccccn3)cnc2O[C@H]1CN(C)C(=O)CCN1CCCCC1 | inactive: 0.994
C[C@@H]1CCCCO[C@H](CN(C)CC2CC2)[C@H](C)CN([C@H](C)CO)C(=O)c2cc(NC(=O)NC3CCCCC3)ccc2O1 | inactive: 0.975
OCc1ccccc1OC1OC(CO)C(O)C(O)C1O (stereo unspecified) | inactive: 1.02
CCCNC(=O)[C@@]1(c2ccc([N+](=O)[O-])cc2)CC(=O)N(CC23CC4CC(CC(C4)C2)C3)[C@@H]1c1ccc(CO)cc1I | inactive: 1.04
C=C1CCC(O)CC1=CC=C1CCCC2(C)C1CCC2C(C)C=CC(C)C(C)C (stereo unspecified) | inactive: 1.14
C[C@@H]1CN([C@@H](C)CO)C(=O)c2cc(NC(=O)CCCN(C)C)ccc2O[C@@H]1CN(C)Cc1ccccc1 | inactive: 0.996
Cc1noc(C)c1NC(=O)Nc1ccc2c(c1)C(=O)N([C@@H](C)CO)C[C@@H](C)[C@@H](CN(C)C(=O)NC(C)C)O2 | inactive: 0.98
COc1ccc(NC(=O)Nc2cccc3c2O[C@H](CN(C)S(C)(=O)=O)[C@H](C)CN([C@@H](C)CO)C3=O)cc1 | inactive: 0.841
C[C@@H]1CN([C@@H](C)CO)C(=O)Cc2cc(NS(=O)(=O)c3ccc(F)cc3)ccc2O[C@H]1CN(C)Cc1ccncc1 | inactive: 0.917

SMILES | relative growth
C[C@H](CO)N1C[C@H](C)[C@H](CN(C)C(=O)c2ccccc2)Oc2cc(Br)ccc2S1(=O)=O | inactive: 0.999
NCCc1cc2nc(-c3ccncc3)ccn2n1 | inactive: 0.945
C[C@H](CO)N1C[C@H](C)[C@H](CN(C)C(=O)C2CCCCC2)OCCCC[C@H](C)Oc2ccc(NC(=O)NC3CCCCC3)cc2C1=O | inactive: 0.99
C[C@H]1CN([C@@H](C)CO)C(=O)c2cccc(NC(=O)Nc3ccc4c(c3)OCO4)c2O[C@@H]1CN(C)Cc1ccc(C(F)(F)F)cc1 | inactive: 0.868
COc1ccc(S(=O)(=O)Nc2cccc3c2O[C@@H](CN(C)C(=O)Nc2cccc4ccccc24)[C@@H](C)CN([C@H](C)CO)C3=O)cc1 | inactive: 1.01
C[C@H](CO)N1C[C@H](C)[C@H](CN(C)C(=O)NC2CCCCC2)Oc2ccc(NC(=O)CCCN(C)C)cc2CC1=O | inactive: 0.995
O=C(C[C@H]1C[C@H]2c3cc(NC(=O)Nc4ccc(C(F)(F)F)cc4)ccc3O[C@H]2[C@@H](CO)O1)NCc1cc(F)ccc1F | inactive: 1.01
C[C@H](CO)N1C[C@H](C)[C@@H](CN(C)C(=O)C2CCCCC2)Oc2cc(C#Cc3ccncc3)ccc2S1(=O)=O | inactive: 0.991
Cc1ccc(S(=O)(=O)N2C[C@H](O)COC[C@@H]3O[C@@H](CC(=O)NCCCN(C)C)CC[C@H]32)cc1 | inactive: 0.984
Cc1noc(C)c1NC(=O)Nc1ccc2c(c1)C(=O)N([C@@H](C)CO)C[C@@H](C)[C@H](CN(C)Cc1ccc(C(F)(F)F)cc1)O2 | inactive: 0.98
Cl.NC(N)=NC(=O)Cc1c(Cl)cccc1Cl | inactive: 1.02
C[C@@H]1CN([C@@H](C)CO)C(=O)CCCn2nncc2CO[C@@H]1CN(C)S(=O)(=O)c1ccc2c(c1)OCCCO2 | inactive: 0.98
O=C(C[C@@H]1C=C[C@H](NC(=O)CN2CCOCC2)[C@H](CO)O1)NCCc1ccncc1 | inactive: 0.97
O=C(C[C@H]1C[C@@H]2c3cc(NC(=O)c4ccc5c(c4)OCO5)ccc3O[C@@H]2[C@@H](CO)O1)NCc1ccc(Oc2ccccc2)cc1 | inactive: 1.03
CC(C)NC(=O)N(C)C[C@@H]1OCCCC[C@@H](C)Oc2ccc(NC(=O)Nc3ccc(F)cc3)cc2C(=O)N([C@@H](C)CO)C[C@H]1C | inactive: 1
CN(C)CC(=O)N1[C@@H]2c3ccc(-c4cccnc4)c(=O)n3C[C@H]1[C@H](CO)[C@H]2C(=O)NC1CCC1 | inactive: 0.986
CC1(C)C(=O)NCCN1C(=O)c1ccco1 | inactive: 0.984
C[C@@H]1CCCCO[C@@H](CN(C)S(=O)(=O)c2ccc(F)cc2)[C@@H](C)CN([C@@H](C)CO)C(=O)c2cc(NS(C)(=O)=O)ccc2O1 | inactive: 1.01
Cc1noc(C)c1NC(=O)Nc1ccc2c(c1)C(=O)N([C@H](C)CO)C[C@H](C)[C@@H](CN(C)C(=O)NC(C)C)O2 | inactive: 0.985
